Data as given in PubChem BioAssay AID881 (National Center for Advancing Translational Sciences (NCATS), 2007).
Out of some 110,000 compounds screened, about 610 (0.55%) were called active. Inconclusive results, whose numbers are uncertain, are shown with a selection of clear calls. Calls come from the whole dose curve; as a rule, active = well fitted inhibition curve with a large enough effect; inconclusive = small, poorly fitted or top-dose-only effect; inactive = no such curve, though single readings can be large or run the other way. Potencies of inconclusive entries are doubtful fits and often do not repeat.

target: Polyunsaturated fatty acid lipoxygenase ALOX15B (Homo sapiens) (UniProt O15296); assay: qHTS Assay for Inhibitors of 15-hLO-2 (15-human lipoxygenase 2); conditions: purified 15hLO-2, xylenol orange hydroperoxide absorbance; activity change, negative = inhibition: at 57.1 µM (top of the series) unless noted; note: nearly all actives have a fitted effect of over 60% in size
How it was run: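 Enzyme 50 nM, AA 45 uM, 25 mM Hepes pH 7.5 + 0.01% Triton X-100; cpd preinc 15 min RT, rxn 90 min RT; stop/detect with 200 uM XO + 300 uM Fe(II) in 50 mM H2SO4, 30 min; A573/A405.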
% is set by controls: 0 for no effect and ±100 for the full control effect; potency is the fitted concentration of half-maximal effect; tags give direction and shape of the fitted curve.

UniProt O15296, sequence (O15296 whole entry, looked up): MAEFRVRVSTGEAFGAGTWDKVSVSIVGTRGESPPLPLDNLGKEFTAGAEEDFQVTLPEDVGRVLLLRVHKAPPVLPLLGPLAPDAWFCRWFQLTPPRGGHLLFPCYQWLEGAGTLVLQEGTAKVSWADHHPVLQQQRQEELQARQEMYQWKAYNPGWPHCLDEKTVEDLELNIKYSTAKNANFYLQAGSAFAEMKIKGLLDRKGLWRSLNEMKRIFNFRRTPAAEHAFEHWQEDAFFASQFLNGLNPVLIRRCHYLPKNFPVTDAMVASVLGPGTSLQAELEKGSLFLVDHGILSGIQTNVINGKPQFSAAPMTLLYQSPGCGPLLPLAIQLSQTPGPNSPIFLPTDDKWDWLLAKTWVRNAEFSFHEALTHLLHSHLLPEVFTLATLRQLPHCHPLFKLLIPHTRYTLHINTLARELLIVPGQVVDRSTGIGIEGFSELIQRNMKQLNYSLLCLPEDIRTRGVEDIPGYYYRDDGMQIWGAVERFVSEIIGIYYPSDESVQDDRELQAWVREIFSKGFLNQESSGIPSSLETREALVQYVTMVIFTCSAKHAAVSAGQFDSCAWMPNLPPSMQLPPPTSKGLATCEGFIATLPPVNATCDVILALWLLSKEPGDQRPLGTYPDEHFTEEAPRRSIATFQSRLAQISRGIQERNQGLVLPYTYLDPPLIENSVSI

Row | SMILES | Potency | activity change, negative = inhibition
1 | Cc1ccc(S(=O)(=O)NCC(=O)N(CC(=O)NCc2ccco2)Cc2cccs2)cc1 | inconclusive: 0.251 µM [inhibitor, full curve, poor fit] | 
2 | COc1cc(/C=C2\N=C3CCCCCN3C2=O)ccc1O | inconclusive: 20 µM [inhibitor, partial curve] | 
3 | Fc1ccc(NC(=S)Nc2ccc(F)c(Cl)c2)cc1Cl | inconclusive: 25.1 µM [inhibitor, partial curve] | 
4 | COc1ccc(-c2nc3cnc(N4CCOCC4)nc3n(-c3ccc(OC)cc3)c2=O)cc1 | inconclusive: 25.1 µM [inhibitor, single point] | 
5 | C=CC(C1=CC(=O)C(OC)=CC1=O)c1ccc(O)cc1 (stereo not drawn) | inconclusive: 20 µM [inhibitor, single point] | 
6 | CCOC(=O)Cc1csc(NC(=O)NC2(C(F)(F)F)Oc3ccc(Cl)cc3O2)n1 (stereo not drawn) | inconclusive: 15.8 µM [inhibitor, partial curve] | 
7 | Brc1ccc(-c2csc(N3CCc4ccccc4C3)n2)cc1 | inactive | 
8 | CCC(=O)N(CC)C1=C(O)c2ccccc2C(=O)C1=O | inconclusive: 3.16 µM [inhibitor, partial curve] | 
9 | Cc1cc(Cl)nc(NC(=O)CSc2ccc(Cl)cc2)n1 |  | inactive: -4.07% [at 11.4 µM]
10 | CCc1ccc(/C=C2\CN(CC)Cc3c2nc2ccccc2c3C(=O)O)cc1 | inconclusive: 25.1 µM [inhibitor, partial curve] | 
11 | Cc1sc2nc(SCC(=O)NCc3ccco3)n(C)c(=O)c2c1C | inactive | 
12 | COC(=O)c1cc(OC)c(OC)cc1NC(=O)C1CCC(=O)N1S(=O)(=O)c1ccc(C)cc1 (stereo not drawn) | inactive | 
13 | O=C(Oc1ccc2ccccc2c1Br)N1CCCCCC1 | inconclusive: 0.251 µM [inhibitor, full curve] | 
14 | CCOC(=O)C1=C(C)N=C2SC(C)C(=O)N2C1c1cccc(F)c1 (stereo not drawn) | inconclusive: 15.8 µM [inhibitor, partial curve] | 
15 | Cc1ccc(-n2c(SCC(=O)Nc3ccc4c(c3)OCCO4)nnc2-c2ccco2)cc1 | inactive | 
16 | O=C(Cc1cccc2ccccc12)N/N=C/c1ccc(Sc2nc3ccccc3s2)o1 | inconclusive: 12.6 µM [inhibitor, partial curve, poor fit] | 
17 | Cc1ccc(C(=O)Oc2ccc(C(=O)COC(=O)c3cnccn3)cc2)cc1 | inactive | 
18 | Cc1ccc(NC(=O)CCc2c(C)nc3ncnn3c2C)cc1 | inconclusive: 0.126 µM [inhibitor, full curve, poor fit] | 
19 | CCOC(=O)C1=C(Cc2ccc(F)cc2)C(=O)c2ccccc2C1=O | inconclusive: 12.6 µM [inhibitor, partial curve] | 
20 | N#CC1=C2SCN(Cc3ccccc3)CN2C(=O)CC1c1ccccc1F (stereo not drawn) | inactive | 
21 | CC(NC(=O)CSc1nnc(CC(=O)Nc2ccc(Cl)c(Cl)c2)n1C)c1ccccc1 (stereo not drawn) | inconclusive: 31.6 µM [inhibitor, single point] | 
22 | CCCOc1ccc(CCc2n[nH]c(=S)n2Cc2ccccc2)cc1 | inconclusive: 12.6 µM [inhibitor, single point] | 
23 | Cc1ccc(-c2cc(C(=O)NC3=NCCS3)c3cc(Br)ccc3n2)o1 | inconclusive: 0.631 µM [inhibitor, full curve] | 

Row | SMILES | Potency | activity change, negative = inhibition
24 | COc1ccc(CNc2ccccc2SC)cc1OC | inconclusive: 20 µM [inhibitor, partial curve] | 
25 | CCCOc1ccc(N2C(=O)CC(NCCNc3ccc(S(=O)(=O)CC)cc3)C2=O)cc1 (stereo not drawn) | inactive | 
26 | COc1ccc(-c2nc3ccccc3o2)cc1NC(=O)c1ccc(Br)o1 | inconclusive: 12.6 µM [inhibitor, partial curve] | 
27 | COC(=O)c1ccc(C=O)cc1 | inactive | 
28 | CCn1c(C(=O)N2CCc3ccccc3C2)cc2sccc21 | inconclusive: 25.1 µM [inhibitor, partial curve] | 
29 | CC[C@H]1C(O)C[C@H]2CCN3C(=O)CCC[C@H]1[C@H]23 (stereo partly drawn) |  | inactive: -5.13% [at 0.0915 µM]
30 | O=C1S/C(=C\c2ccc(N3CCOCC3)o2)C(=O)N1Cc1ccc(F)cc1 | active: 5.01 µM | 
31 | C=CCc1cc(/C=N\NC(=O)CSc2nnc(CCCc3ccc(OC)c(C)c3)o2)cc(OC)c1O | inconclusive: 39.8 µM [inhibitor, single point] | 
32 | COC(=O)c1[nH]c2ccc(Br)cc2c1NC(=O)Oc1ccccc1 | inconclusive: 15.8 µM [inhibitor, partial curve] | 
33 | COc1ccc(-c2oc(NC(=O)CCl)c(C#N)c2-c2ccc(OC)cc2)cc1 | inconclusive: 3.16 µM [inhibitor, full curve, poor fit] | 
34 | O=C(Cn1c(=O)oc2cc(S(=O)(=O)N3CCCC3)ccc21)NC1CCCc2ccccc21 (stereo not drawn) | inconclusive: 31.6 µM [inhibitor, single point] | 
35 | Cc1ccc(S(=O)(=O)c2cc3c(=O)n4ccccc4nc3n(Cc3ccco3)c2=N)cc1 | inconclusive: 31.6 µM [inhibitor, single point] | 
36 | O=C(Nc1nc2ccc(S(=O)(=O)N3CCCCC3)cc2s1)c1ccncc1 | inactive | 
37 | O=c1[nH]c(CSc2nc3ccccc3o2)nc2c1cnn2-c1ccccc1 | inconclusive: 39.8 µM [inhibitor, single point] | 
38 | CNc1ccnc(-c2ccccc2C)n1 | inactive | 
39 | O=C(Nc1cc(C(=O)N2CCCC2)ccc1N1CCCC1)c1ccccc1 | inactive | 
40 | Cc1oc2cc(O)cc(C)c2c(=O)c1-c1cnn(-c2ccccc2)c1 |  | inactive: 3.46% [at 2.29 µM]
41 | COc1ccc(C2=CC(c3ccc(OC)c(OC)c3)NC(=S)N2)cc1 (stereo not drawn) | inconclusive: 15.8 µM [inhibitor, partial curve] | 
42 | CCOC(=O)c1c(NC(=S)NC(=O)c2ccc(Cn3cc(Cl)cn3)o2)sc2c1CCCCC2 | inconclusive: 25.1 µM [inhibitor, partial curve, poor fit] | 
43 | COc1c(O)c(O)cc2c1oc1c3ccccc3oc(=O)c21 | inconclusive: 7.94 µM [inhibitor, partial curve] | 
44 | COc1cccc(CN2CC(O)=C(c3nc(-c4ccc(Cl)cc4)cs3)C2=N)c1 | inconclusive: 39.8 µM [inhibitor, single point] | 
45 | CCCSC1=N/C(=C\c2ccsc2)C(=O)S1 | inactive | 
46 | O=C(/C=C/c1ccccc1Cl)NC(=S)Nc1ccccc1C(=O)NC1CCCCC1 | inconclusive: 20 µM [inhibitor, partial curve] | 

Row | SMILES | Potency | activity change, negative = inhibition
47 | COC(=O)C1(Cc2ccccc2)C=C2C(=C(c3ccccc3)C(=O)C2C)CN1 (stereo not drawn) | inconclusive: 15.8 µM [inhibitor, partial curve] | 
48 | COc1ccc(C2N=C(c3ccccc3)C(C)(C)N2O)cc1 (stereo not drawn) | inconclusive: 12.6 µM [inhibitor, partial curve] | 
49 | Cc1ccc(NC(=S)NC(NC(=O)Cc2cccc3ccccc23)C(Cl)(Cl)Cl)cc1 (stereo not drawn) | inconclusive: 12.6 µM [inhibitor, partial curve] | 
50 | COc1ccc(/C=C2\CCCC3C2=NN(C(=O)c2ccco2)C3c2ccc(OC)c(OC)c2)cc1OC (stereo not drawn) | inconclusive: 25.1 µM [inhibitor, single point] | 
51 | COC(=O)c1cn(NC(=O)C2CCCCC2)c(=O)c2ccccc12 | inactive | 
52 | CC(c1ccc(Cl)cc1)n1c(-c2ccc3ccccc3n2)n[nH]c1=S (stereo not drawn) | inconclusive: 12.6 µM [inhibitor, partial curve] | 
53 | COCCn1c(=O)c(-c2ccc(F)cc2)nc2cnc(OCc3ccccc3)nc21 | inactive | 
54 | O=C(c1ccco1)[C@@H]1[C@@H]2C(=O)N(c3ccc(Br)cc3)C(=O)[C@@H]2C2c3ccccc3C=CN21 (stereo partly drawn) | inconclusive: 15.8 µM [inhibitor, partial curve] | 
55 | N/C(=N\OC(=O)Cc1cccs1)c1ccccc1 | inconclusive: 10 µM [inhibitor, partial curve] | 
56 | OCc1ccc(-c2nn(Cc3ccccc3)c3ccccc23)o1 | inconclusive: 25.1 µM [inhibitor, single point] | 
57 | COc1ccc(S(=O)(=O)N[C@@H](Cc2ccccc2)C(=O)N2CC[C@@]3(O)CCCC[C@H]3C2)cc1 | inactive | 
58 | CCc1ccc2oc(-c3cc(N)ccc3O)nc2c1 |  | inconclusive: -35.2% [inhibitor] [at 11.4 µM]
59 | C/C(=C\c1ccco1)C1C(C#N)=C(N)Oc2n[nH]c(-c3ccccc3)c21 (stereo not drawn) | inconclusive: 20 µM [inhibitor, partial curve] | 
60 | O=C(Nc1ccc(CN2CCOCC2)cc1)c1cc2ccccc2o1 | inconclusive: 3.98 µM [inhibitor, single point] | 
61 | Cn1nc(-c2ccc(Cl)cc2)c2cc(C(=O)NC3CC3)sc21 | inactive | 
62 | CCOC(=O)c1c(C)[nH]sc1=S | inconclusive: 15.8 µM [inhibitor, single point] | 
63 | CC(=O)C(C(C)=O)c1c(Cl)c(O)c(O)c2c(C(=O)c3ccccc3)coc12 | inconclusive: 1 µM [inhibitor, full curve] | 
64 | CN(C)c1ccc(N/C=C/C(=O)c2ccccc2)cc1 | inconclusive: 15.8 µM [inhibitor, partial curve] | 
65 | CS(=O)(=O)Nc1cccc(-c2nccc(-n3ccnc3)n2)c1 | inconclusive: 25.1 µM [inhibitor, single point] | 
66 | O=C(N/N=C\c1ccc(CN(Cc2ccc(Cl)cc2)S(=O)(=O)c2ccccc2)o1)C(=O)Nc1ccc(F)cc1 | inconclusive: 12.6 µM [inhibitor, partial curve] | 
67 | NC(=S)NNc1cccc(Cl)c1 | inconclusive: 12.6 µM [inhibitor, partial curve] | 
68 | O=c1c2ccccc2sn1-c1ccccc1 | active: 1.26 µM | 
